# This is one part of the list.
# Target: T1, OsWOX13 (Oryza sativa, UniProt Q5QMM3 1-267)
# T1 sequence: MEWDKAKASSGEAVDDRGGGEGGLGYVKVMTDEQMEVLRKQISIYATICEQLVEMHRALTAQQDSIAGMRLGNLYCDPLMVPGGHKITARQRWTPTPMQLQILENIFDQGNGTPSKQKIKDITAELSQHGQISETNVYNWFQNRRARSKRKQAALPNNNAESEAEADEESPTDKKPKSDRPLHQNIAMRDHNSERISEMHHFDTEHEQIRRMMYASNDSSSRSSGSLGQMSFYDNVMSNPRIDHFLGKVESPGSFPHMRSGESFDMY
# Test: protein-binding microarray (RPBM); PBS, 2% BSA, 51.3 ng/ul salmon testes DNA, 50 uM zinc acetate, 200 nM TF, 25 C, 1 h; high values mean tight binding
# Details: protein: recombinant; tags: N-terminal polyhistidine and DsRed monomer fusion (pET32a); label: CyDye5-dUTP incorporated in the synthesized complementary strand; 3' TTTTT single-stranded linker to array surface; dsDNA, one strand shown
# How it was run: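 In PBS with 2% BSA, salmon testes DNA and 50 µM zinc acetate, 200 nM protein was incubated on a custom Agilent array at 25 °C for 1 h and then washed off. The array had been made double-stranded by primer extension with Cy5-dUTP and blocked with 2% BSA. The proteins were transcription factors fused N-terminally to polyhistidine and DsRed, expressed in E. coli BL21-CodonPlus and purified on Ni–NTA. The binding signal is per-feature fluorescence intensity (arbitrary units) from an Axon 4000B scanner.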
row,Sequence,binding signal
1,TCAAGTTGAATTGGCCCTGATTGACAGACGAGCAGTGACTCGGAGTCACCTAGTGCAG,29600 fluorescence intensity (a.u.)
2,CGCCGTCCATCTCCATTAATGCCTCCATCCACCTCGCCCACGGAGTCACCTAGTGCAG,3320 fluorescence intensity (a.u.)
3,CCCAATAACAAAACAAATTACAGATTCCGCCAGAAAACTGCGGAGTCACCTAGTGCAG,9050 fluorescence intensity (a.u.)
4,ATTTTATAATTGAACAGTATTTTATAATTTTGAATGTACACGGAGTCACCTAGTGCAG,17600 fluorescence intensity (a.u.)
5,TATGTTCTTGATTTGTCCTGTTACATTGCTGACATATGTGCGGAGTCACCTAGTGCAG,8650 fluorescence intensity (a.u.)
6,GATAAGTGATTGATTAACTACTAATTTAATTATCACTGTGCGGAGTCACCTAGTGCAG,63300 fluorescence intensity (a.u.)
7,AAAATTATATAATTATAATTTATTTTATTGCAACTTGATTCGGAGTCACCTAGTGCAG,27000 fluorescence intensity (a.u.)
8,GACCGTAATTACCTTAGTGCAAATTCTACATATCTATATACGGAGTCACCTAGTGCAG,14800 fluorescence intensity (a.u.)
9,ACTCTACTGATAGATTTGATTGTAAACATTGTTTTCTTGCCGGAGTCACCTAGTGCAG,30600 fluorescence intensity (a.u.)
10,ACAAATTTAATCAATACTAATTTAGTAAAGTGCCCGCGCACGGAGTCACCTAGTGCAG,35900 fluorescence intensity (a.u.)
11,TAAATTTAGCCTTTGATTTCTTCTCTACAAAATAAATTTCCGGAGTCACCTAGTGCAG,4040 fluorescence intensity (a.u.)
12,ATATGATGTGATGGAAAGTTAGGAATAGGCGGAAACTATACGGAGTCACCTAGTGCAG,4140 fluorescence intensity (a.u.)
13,TGGGCTAAACGCATCAATCACACACGCAACGTGGACGGGCCGGAGTCACCTAGTGCAG,14600 fluorescence intensity (a.u.)
14,TAGGAGTAATTAACTTTATAATTTATAAGTTGATTTGTATCGGAGTCACCTAGTGCAG,40900 fluorescence intensity (a.u.)
15,ATATATATATATATATCCATATTCCTTCCCCTCGCACTGTCGGAGTCACCTAGTGCAG,4060 fluorescence intensity (a.u.)
16,ATAAGTTGTTAATTAATTAAACCATTGTTTGTGGATTGTGCGGAGTCACCTAGTGCAG,25200 fluorescence intensity (a.u.)
17,TGATTAATTTGAGAAATTTCGAATTCTATTATTTGATGATCGGAGTCACCTAGTGCAG,31500 fluorescence intensity (a.u.)
18,TCTGATGGGCGCTGGCTATCAATGTATGTCACTGTGTTGTCGGAGTCACCTAGTGCAG,6300 fluorescence intensity (a.u.)
19,ATAATTAAAACTCAATTAATCACATGTTATTTCTATCTCACGGAGTCACCTAGTGCAG,19100 fluorescence intensity (a.u.)
20,ACACATTAATTTAGAGGTAATAAATACAATAGATTGCATCCGGAGTCACCTAGTGCAG,17200 fluorescence intensity (a.u.)
21,TCCAATTTCATTGGAATTAATTGTTAATCCATCCTTTGATCGGAGTCACCTAGTGCAG,14900 fluorescence intensity (a.u.)

row,Sequence,binding signal
1,TAGTTCATTGATTATAGCATTGGAAGTTTGGATCCTCATTCGGAGTCACCTAGTGCAG,3990 fluorescence intensity (a.u.)
2,ATACTTATAAGTTAAAATTTAAATTTTCAACATTGAATTTCGGAGTCACCTAGTGCAG,4290 fluorescence intensity (a.u.)
3,GCATGGTGGCGGCGGGAAGGAGGAGTGGGGCGGCGGGTGCCGGAGTCACCTAGTGCAG,5290 fluorescence intensity (a.u.)
4,TTATAATTTACGCTGCAAATGTAGCAATCAGTCGATACTTCGGAGTCACCTAGTGCAG,16000 fluorescence intensity (a.u.)
5,GCTGACCATTGATTGATTCCCATAATTACCTAGAGAACTTCGGAGTCACCTAGTGCAG,40600 fluorescence intensity (a.u.)
6,TAAGATAGACGGTCAAAATTGGACACGTAAATTCATGGCTCGGAGTCACCTAGTGCAG,7400 fluorescence intensity (a.u.)
7,GGCAGCCAAATTGACTCAGATATTTTGTTGTGTTGCTAGTCGGAGTCACCTAGTGCAG,18100 fluorescence intensity (a.u.)
8,CTCGTCCTGATTGCCAACGACGGCGGAGAGCTCGCCGGTGCGGAGTCACCTAGTGCAG,19100 fluorescence intensity (a.u.)
9,TATTACATTTAATGAAACTAATTTGGTGTTTTAAATGCTGCGGAGTCACCTAGTGCAG,10600 fluorescence intensity (a.u.)
10,TAAATTAATTGGGCCGTCAAACTCAGGAAAAGCCCAGTCTCGGAGTCACCTAGTGCAG,40800 fluorescence intensity (a.u.)
11,ATAATCCCTTGCGATTTATATTGAATTAATAGTTCTTGTTCGGAGTCACCTAGTGCAG,65000 fluorescence intensity (a.u.)
12,AGTCAGCTAGCTTAGTCTGATTGGCACCTAACCAACACTACGGAGTCACCTAGTGCAG,11400 fluorescence intensity (a.u.)
13,ATGATTTGACAATGTGTTGCTACAGTAAATATTTGCTAATCGGAGTCACCTAGTGCAG,34700 fluorescence intensity (a.u.)
14,GCTCATTGAAAATAAACTGTTGGTTTCAGTTCCAAGGTCACGGAGTCACCTAGTGCAG,3410 fluorescence intensity (a.u.)
15,GCCATCTGCTGCCGATGATTAGCGATGGATTATTATATCGCGGAGTCACCTAGTGCAG,3160 fluorescence intensity (a.u.)
16,AATTATTGATTTGATGAAACTAATTTAGTATTATAAATATCGGAGTCACCTAGTGCAG,6950 fluorescence intensity (a.u.)
17,TTGATTGGATAATTTTGTGGTTTGGGAAGAAATGGTGATGCGGAGTCACCTAGTGCAG,64000 fluorescence intensity (a.u.)
18,ACCAGATCTACAACATTATAATTGACAATAGTTTTATTTGCGGAGTCACCTAGTGCAG,11100 fluorescence intensity (a.u.)
19,TTTTCCTTTGCCAATCAGGCATGAACTGAACTACCTTGTCCGGAGTCACCTAGTGCAG,4170 fluorescence intensity (a.u.)
20,ACAACAATTAACAGTGTACAATAATTACATACATGCACCGCGGAGTCACCTAGTGCAG,19000 fluorescence intensity (a.u.)
21,TTTAAATAGATGATAAATAGACTTACTTATCCTTAGTCATCGGAGTCACCTAGTGCAG,24900 fluorescence intensity (a.u.)

row,Sequence,binding signal
1,AAAAGCGATGATGACTGATTGAATTGAAGTTGAGGAGGTGCGGAGTCACCTAGTGCAG,23800 fluorescence intensity (a.u.)
2,GTACAATTATGTTCTTGATTCTTATATTTTGAAACGGAGGCGGAGTCACCTAGTGCAG,3290 fluorescence intensity (a.u.)
3,ACCACAAACTAATTATAGGTGCATACTTTCTATTTGCGCACGGAGTCACCTAGTGCAG,6590 fluorescence intensity (a.u.)
4,ACTGAAAGCCAATCAATCATATACTGAAAACCTGCTAGTTCGGAGTCACCTAGTGCAG,44800 fluorescence intensity (a.u.)
5,CTTTGCTTGATTACTTCCTTCGATCTTGCCCTGGTTGGTTCGGAGTCACCTAGTGCAG,24900 fluorescence intensity (a.u.)
6,GTTGGAACCTTAACTGATTGTGAGAGGATGTATTTCCATGCGGAGTCACCTAGTGCAG,5730 fluorescence intensity (a.u.)
7,ATAGTACGATTGCTCAATCAAATTGTTGGCGCTTTTAAATCGGAGTCACCTAGTGCAG,8770 fluorescence intensity (a.u.)
8,CGAGAGATTGATAGATTATAATAACCCCGGGTGTACATATCGGAGTCACCTAGTGCAG,41700 fluorescence intensity (a.u.)
9,CTGCATTAATTACTGAAAACTTCCGAGCACTCGTTCCCACCGGAGTCACCTAGTGCAG,17700 fluorescence intensity (a.u.)
10,CACATTACAACTACCTTGATTGGAGGCTTCTCATATTATACGGAGTCACCTAGTGCAG,18400 fluorescence intensity (a.u.)
11,AGTTAACTGAAACTCTGAACTTTCTGAAATTTCCTCCATTCGGAGTCACCTAGTGCAG,11300 fluorescence intensity (a.u.)
12,CACGAGTACTTAATTAACAACTTTTATTTAACGGATGTTTCGGAGTCACCTAGTGCAG,5780 fluorescence intensity (a.u.)
13,GTAATTATTCCATCCGTCACAATTCACAAATTACAACAACCGGAGTCACCTAGTGCAG,7440 fluorescence intensity (a.u.)
14,AAATATCTTAATTTGTAGCAATTCATTATAGTTGGTAAGGCGGAGTCACCTAGTGCAG,5500 fluorescence intensity (a.u.)
15,CTTTAATTATATTGGTTGCATGTATTATATTAGTTGAGATCGGAGTCACCTAGTGCAG,17300 fluorescence intensity (a.u.)
16,CAAGATAATGCAAATTATTTGACTATTTCTTCAATGCGTCCGGAGTCACCTAGTGCAG,13800 fluorescence intensity (a.u.)
17,CCTGATTTTAGGTACAATTTATCGTGTAGGAGATAATTTTCGGAGTCACCTAGTGCAG,8020 fluorescence intensity (a.u.)
18,ATGTGATTTCTTAATGTGAGGTTTTGATCGAACCAGCTGACGGAGTCACCTAGTGCAG,21200 fluorescence intensity (a.u.)
19,CCTCGGTGACTGGCAGGTGGTCCGAAGTCCTAACATGTGCCGGAGTCACCTAGTGCAG,5010 fluorescence intensity (a.u.)
20,TTTACTAATTTATTTCCTTCTGCAAGGCGATATGCAATTGCGGAGTCACCTAGTGCAG,20700 fluorescence intensity (a.u.)
21,AAAATTAAATTTAACCATGTCATTTTATTTCTCACACTTGCGGAGTCACCTAGTGCAG,27700 fluorescence intensity (a.u.)

row,Sequence,binding signal
1,ATTGATTTTATTAAGTAACTGTGTGCTAATTAATTGTTCACGGAGTCACCTAGTGCAG,28300 fluorescence intensity (a.u.)
2,CTAATTCTTGATTAATTACCGCACTTAGTCACGCCAAGACCGGAGTCACCTAGTGCAG,36700 fluorescence intensity (a.u.)
3,AAATTAAATTTTATTTGTTGAAAATAATATCATTGGATTGCGGAGTCACCTAGTGCAG,6020 fluorescence intensity (a.u.)
4,ACACCCTAATTTGTTGATTTAGCCACATTCGTATAGGAACCGGAGTCACCTAGTGCAG,30200 fluorescence intensity (a.u.)
5,GCCTTCATGCATAGAGACGTGATTAGTGGTTAATTAGTGGCGGAGTCACCTAGTGCAG,7600 fluorescence intensity (a.u.)
6,ATTAATCTGCAGATTTCCATGATTGGTGGTGGAGTTCATCCGGAGTCACCTAGTGCAG,11800 fluorescence intensity (a.u.)
7,TACCAAAATGATTACTCCCTTCATCTAGCATTATACCAACCGGAGTCACCTAGTGCAG,3450 fluorescence intensity (a.u.)
8,GGCTAATCTGATCTTAATGATCAAGACACGCATGAGTGAGCGGAGTCACCTAGTGCAG,7840 fluorescence intensity (a.u.)
9,TGATTAACGTGGTTCAAATTGATTCTTAGAAAATGAAAAGCGGAGTCACCTAGTGCAG,7510 fluorescence intensity (a.u.)
10,CTTCATCTTAATTATATCTACCTACTCTTCATAAGGAAATCGGAGTCACCTAGTGCAG,5330 fluorescence intensity (a.u.)
11,CACCAATTTGATTGTTTTATTATTTTAAATCTTCAGTACTCGGAGTCACCTAGTGCAG,14200 fluorescence intensity (a.u.)
12,AAAAGGTACTCCTAAATTGATAATCGTCGTGAACAAATAGCGGAGTCACCTAGTGCAG,4470 fluorescence intensity (a.u.)
13,CCCATGTAGATTGGGCCTGCTTAGTGAAGTCTCACGTAGCCGGAGTCACCTAGTGCAG,5240 fluorescence intensity (a.u.)
14,AAATATTATAATTGATTGTCGATGAAACATCGGGTTGTACCGGAGTCACCTAGTGCAG,46200 fluorescence intensity (a.u.)
15,CTAGTTGATGGGTGGTTGACGTTTCATCGAGCTATCCTAGCGGAGTCACCTAGTGCAG,7250 fluorescence intensity (a.u.)
16,CAAATAGATAGATTAATATGCAGTATAACACTCTACAAATCGGAGTCACCTAGTGCAG,32400 fluorescence intensity (a.u.)
17,GGTGGTGGTGGTGGTGGTGGTGGTGTAGGAGGAGGAGGAGCGGAGTCACCTAGTGCAG,22300 fluorescence intensity (a.u.)
18,GCGCCACATAATTGTAGTCATCCTGCCGGTAACCATTTCGCGGAGTCACCTAGTGCAG,5940 fluorescence intensity (a.u.)
19,ACTATTCATGTTCAACGTTTGACTGTCCGTCTTATTTGAACGGAGTCACCTAGTGCAG,4450 fluorescence intensity (a.u.)
20,AAGCATGCACCTGATTGATTCACTAAACGTATCGTCGACACGGAGTCACCTAGTGCAG,18800 fluorescence intensity (a.u.)
21,TGGCTAATTTGACTAAGTCTTCTTCCAACGTGGCATTGGCCGGAGTCACCTAGTGCAG,19800 fluorescence intensity (a.u.)
